Data taken from the supplement of paper PMC12217912.
The list shows a part of the results. Sequences were assembled here from the parent chain. Values near 0.05 are background.

B1: TEV protease; numbered along this chain (parent)
chain: MGESLFKGPRDYNPISSSICHLTNESDGHTTSLYGIGFGPFIITNKHLFRRNNGTLVVQSLHGVFKVKDTTTLQQHLVDGRDMIIIRMPKDFPPFPQKLKFREPQREERICLVTTNFQTKSMSSMVSDTSCTFPSGDGIFWKHWIQTKDGQCGSPLVSTRDGFIVGIHSASNFTNTNNYFTSVPKNFMELLTNQEAQQWVSGWRLNADSVLWGGHKVFMVKPEEPFQPVKEATQL

Variants of: B1
Assay: raw area under fraction-flipped curve 0-4 h after induction (AUC4h, not background-subtracted), DNA-recorder readout of cleavage of the substrate (dimensionless); higher = more cleavage of the substrate by the protease variant
Details: temperature: 34 °C; time window: 0-4 h after rhamnose induction
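Note: Bxb1 expression induced with 0.2% (w/v) L-rhamnose at OD600 near 0.5, cultures sampled hourly, flipped fraction per protease–substrate barcode pair counted by paired-end Illumina sequencing.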

Row | Variant | area with substrate EELYFQS | area with substrate EGLYFQS | area with substrate EHLYFQS | area with substrate EILYFQS | area with substrate EKLYFQS | area with substrate ELLYFQS | area with substrate EMLYFQS | area with substrate EPLYFQS | area with substrate EVLYFQS | area with substrate EWLYFQS | area with substrate EYLYFQS | area with substrate EFLYFQS | area with substrate EQLYFQS | area with substrate ERLYFQS | area with substrate ESLYFQS | area with substrate ETLYFQS | area with substrate EDLYFQS
1 | MGESLFKGPRDYNPISSSICHLTNESDGHTTSLYGIGFGPFIITNKHLFRRNNGTLVVQPLHGVFKVKDTTTLQQHLVDGRDMIIIRMPKDFPPFPQKLKFREPQREERICLVTTNFQTKSMSSMVSDTSCTFPSGDGIFWKHWIQTKDGQCGSPLVSTRDGFIVGIHSASNFTNTNNYFTSVPKNFMELLTNQEAQQWVSGWRLNADSVLWGGHKVFMVKPEEPFQPVKEATQL [S60P] | 0.0582 | 0.0548 | 0.0575 | 0.056 | 0.0603 | 0.0454 | 0.0715 | 0.0657 | 0.0489 | 0.0533 | 0.0584 | – | – | – | – | – | –
2 | MGESLFKGPRDYNPISSSICHLTNESDGHTTSLYGIGFGPFIITNKHLFRRNNGTLVVQSLHGVFKVKDTTTLRQHLVDGRDMIIIRMPKDFPPFPQKLKFREPQREERICLVTTNFQTKSMSSMVSDTSCTFPSGDGIFWKHWIQTKDGQCGSPLVSTRDGFIVGIHSASNFTNTNNYFTSVPKNFMELLTNQEAQQWVSGWRLNADSVLWGGHKVFMVKPEEPFQPVKEATQL [Q74R] | 0.101 | – | 0.0713 | 0.0884 | – | 0.0454 | 0.104 | 0.111 | – | 0.0844 | 0.105 | 0.0962 | 0.104 | 0.0872 | 0.0892 | 0.12 | –
3 | MGESLFKGPRDYNPISSSICHLTNESDGHTTSLYGIGFGPFIITNKHLFRRNNGTLVVQSLHGVFKVKDTTTLQQHLVDGRDMIIDRMPKDFPPFPQKLKFREPQREERICLVTTNFQTKSMSSMVSDTSCTFPSGDGIFWKHWIQTKDGQCGSPLVSTRDGFIVGIHSASNFTNTNNYFTSVPKNFMELLTNQEAQQWVSGWRLNADSVLWGGHKVFMVKPEEPFQPVKEATQL [I86D] | 0.027 | 0.0405 | – | 0.0389 | – | – | – | – | 0.0491 | – | – | 0.0578 | 0.0583 | 0.042 | – | – | –
4 | MGESLFKGPRDYNPISSSICHLTNESDGHTTSLYGIGFGPFIITNKHLFRRNNGTLVVQSLHGVFKVKDTTTLQQHLVDGRDMIIIRMPKDFPPFPQKLKFREPQREERICLVTTNFQTKSMSSMVSDTSCTFPSGDGIFWKHWIQTKDGQCGSPLVSTRDGFIVGIHSASNFTNTNNYFTSVPKNFMELLTNQEAQQWVSGWRLNADSVLWGGHKVFMVKPEEPFQPGKEATQL [V229G] | 0.126 | 0.0829 | 0.136 | 0.0586 | 0.119 | 0.0889 | 0.133 | 0.138 | 0.116 | – | – | 0.113 | 0.129 | 0.105 | 0.0918 | – | 0.117
5 | MGESLFKGPRDYNPISSSICHLTNESDGHTTSLYGIGFGPFIITNKHLFRRNNGFLVVQSLHGVFKVKDTTTLQQHLVDGRDMIIIRMPKDFPPFPQKLKFREPQREERICLVTTNFQTKSMSSMVSDTSCTFPSGDGIFWKHWIQTKDGQCGSPLVSTRDGFIVGIHSASNFTNTNNYFTSVPKNFMELLTNQEAQQWVSGWRLNADSVLWGGHKVFMVKPEEPFQPVKEATQL [T55F] | 0.08 | 0.0822 | 0.101 | 0.0837 | 0.131 | 0.106 | 0.109 | 0.145 | 0.0937 | 0.104 | 0.102 | – | 0.061 | – | 0.112 | 0.111 | –
6 | MGESLFKGPRDYNPISSSICHLTNESDGHTTSLYGIGFGPFIITNKHLFRRNNGTLVVQSLHGVFKVKDTTTLQQHLVDGRDMIIIRMPKDFPPFPQKLKKREPQREERICLVTTNFQTKSMSSMVSDTSCTFPSGDGIFWKHWIQTKDGQCGSPLVSTRDGFIVGIHSASNFTNTNNYFTSVPKNFMELLTNQEAQQWVSGWRLNADSVLWGGHKVFMVKPEEPFQPVKEATQL [F101K] | 0.0559 | 0.0599 | – | – | 0.067 | – | – | – | 0.0475 | – | 0.0485 | – | – | – | – | – | –
7 | MGESLFKGPRDYNPISSSICHLTNESDGHTTSLYGIGFGPFIITNKHLFRRNNGTLVVQSLHGVFKVKDTTTLQQHLVDGRDMIIIRMPKDFPPFPQKLKFREPQREERICLVTTNFQTKSMSSMVSDTSCTFPSGDGIFWKHWIQTKDGQCGSPLVSTRDGFIVGIHSASNFTNTNNYFTSVPKNFMELLTNQEAQQWVSYWRLNADSVLWGGHKVFMVKPEEPFQPVKEATQL [G202Y] | 0.0607 | 0.0701 | 0.053 | 0.059 | 0.0597 | – | – | – | 0.0516 | – | – | – | – | 0.023 | 0.0503 | 0.0615 | 0.0852
8 | MGESLFKGPRDYNPISSSICHLTNESDGHTTSLYGIGFGPFIITNKHLFRRNNGTLVVQSLHGVFKVKDTTTLQQHLVDGRDMIIIRMPKDFPPFPQKLKFREPQREERICLVTTNFQTKSMSFMVSDTSCTFPSGDGIFWKHWIQTKDGQCGSPLVSTRDGFIVGIHSASNFTNTNNYFTSVPKNFMELLTNQEAQQWVSGWRLNADSVLWGGHKVFMVKPEEPFQPVKEATQL [S124F] | 0.0962 | 0.0948 | 0.0966 | – | 0.118 | 0.103 | 0.0755 | 0.108 | 0.0812 | 0.0988 | 0.109 | 0.124 | – | 0.1 | 0.0909 | – | –
9 | MGESLFKGPHDYNPISSSICHLTNESDGHTTSLYGIGFGPFIITNKHLFRRNNGTLVVQSLHGVFKVKDTTTLQQHLVDGRDMIIIRMPKDFPPFPQKLKFREPQREERICLVTTNFQTKSMSSMVSDTSCTFPSGDGIFWKHWIQTKDGQCGSPLVSTRDGFIVGIHSASNFTNTNNYFTSVPKNFMELLTNQEAQQWVSGWRLNADSVLWGGHKVFMVKPEEPFQPVKEATQL [R10H] | 0.108 | 0.0858 | – | 0.0931 | 0.0796 | 0.0709 | 0.101 | 0.0986 | – | 0.081 | – | – | – | 0.0796 | 0.0037 | 0.0934 | –
